In the supplement of paper PMC11876631:
Changes are numbered by the printed parent chain. Names may count otherwise. ± gives the standard deviation of the averaged measurements. Laboratory Escherichia coli strains with one amino-acid change in an essential protein, pooled on minimal glucose agar with carbenicillin or gentamicin at twice the control MIC (plus kanamycin and chloramphenicol for the plasmids), 48 h. Fold change of barcode share against drug-free plates; higher = less susceptible. Active = above 20 in both replicates (the paper's putatively resistant). '<' = one read or none on drug, '>' = one read or none on a drug-free plate. Shares are relative, so most strains fall below 1 when a few take over. Listed are strains with at least 15 reads on both drug-free plates, and hits; most hits rest on fewer reference reads. Replicate rank correlation about 0.5. Edits are read from barcodes.

B1: pyrE I182W (protein)
chain: MKPYQRQFIEFALSKQVLKFGEFTLKSGRKSPYFFNAGLFNTGRDLALLGRFYAEALVDSGIEFDLLFGPAYKGIPIATTTAVALAEHHDLDLPYCFNRKEAKDHGEGGNLVGSALQGRVMLVDDVITAGTAIRESMEIIQANGATLAGVLISLDRQERGRGEISAIQEVERDYNCKVISIWTLKDLIAYLEEKPEMAEHLAAVKAYREEFGV
B2: pyrF I125Q (protein)
chain: MTLTASSSSRAVTNSPVVVALDYHNRDDALAFVDKIDPRDCRLKVGKEMFTLFGPQFVRELQQRGFDIFLDLKFHDIPNTAAHAVAAAADLGVWMVNVHASGGARMMTAAREALVPFGKDAPLLQAVTVLTSMEASDLVDLGMTLSPADYAERLAALTQKCGLDGVVCSAQEAVRFKQVFGQEFKLVTPGIRPQGSEAGDQRRIMTPEQALSAGVDYMVIGRPVTQSVDPAQTLKAINASLQRSA
B3: pyrG V13D (protein)
chain: MTTNYIFVTGGVDSSLGKGIAAASLAAILEARGLNVTIMKLDPYINVDPGTMSPIQHGEVFVTEDGAETDLDLGHYERFIRTKMSRRNNFTTGRIYSDVLRKERRGDYLGATVQVIPHITNAIKERVLEGGEGHDVVLVEIGGTVGDIESLPFLEAIRQMAVEIGREHTLFMHLTLVPYMAASGEVKTKPTQHSVKELLSIGIQPDILICRSDRAVPANERAKIALFCNVPEKAVISLKDVDSIYKIPGLLKSQGLDDYICKRFSLNCPEANLSEWEQVIFEEANPVSEVTIGMVGKYIELPDAYKSVIEALKHGGLKNRVSVNIKLIDSQDVETRGVEILKGLDAILVPGGFGYRGVEGMITTARFARENNIPYLGICLGMQVALIDYARHVANMENANSTEFVPDCKYPVVALITEWRDENGNVEVRSEKSDLGGTMRLGAQQCQLVDDSLVRQLYNAPTIVERHRHRYEVNNMLLKQIEDAGLRVAGRSGDDQLVEIIEVPNHPWFVACQFHPEFTSTPRDGHPLFAGFVKAASEFQKRQAK
B4: pyrH M37A (protein)
chain: MATNAKPVYKRILLKLSGEALQGTEGFGIDASILDRAAQEIKELVELGIQVGVVIGGGNLFRGAGLAKAGMNRVVGDHMGMLATVMNGLAMRDALHRAYVNARLMSAIPLNGVCDSYSWAEAISLLRNNRVVILSAGTGNPFFTTDSAACLRGIEIEADVVLKATKVDGVFTADPAKDPTATMYEQLTYSEVLEKELKVMDLAAFTLARDHKLPIRVFNMNKPGALRRVVMGEKEGTLITE
B5: pyrH M37D (protein)
chain: B4 chain with A37D
B6: ribA L86A (protein)
chain: MQLKRVAEAKLPTPWGDFLMVGFEELATGHDHVALVYGDISGHTPVLARVHSECLTGDALFSLRCDCGFQLEAALTQIAEEGRGIALYHRQEGRNIGLLNKIRAYALQDQGYDTVEANHQLGFAADERDFTLCADMFKLLGVNEVRLLTNNPKKVEILTEAGINIVERVPLIVGRNPNNEHYLDTKAEKMGHLLNK
B7: ribA F137Q (protein)
chain: B6 chain with A86L, F137Q
B8: ribC V26W (protein)
chain: MFTGIVQGTAKLVSIDEKPNFRTHVWELPDHMLDGLETGASVAHNGCCLTVTEINGNHVSFDLMKETLRITNLGDLKVGDWVNVERAAKFSDEIGGHLMSGHIMTTAEVAKILTSENNRQIWFKVQDSQLMKYILYKGFIGIDGISLTVGEVTPTRFCVHLIPETLERTTLGKKKLGARVNIEIDPQTQAVVDTVERVLAARENAMNQPGTEA
B9: ribC M99D (protein)
chain: B8 chain with W26V, M99D
B10: rnpA V86A (protein)
chain: MVKLAFPRELRLLTPSQFTFVFQQPQRAGTPQITILGRLNSLGHPRIGLTVAKKNVRRAHERNRIKRLTRESFRLRQHELPAMDFAVVAKKGVADLDNRALSEALEKLWRRHCRLARGS
B11: rnpA L105P (protein)
chain: B10 chain with A86V, L105P
B12: rnpA V93D (protein)
chain: B10 chain with A86V, V93D
B13: bioF L104A (protein)
chain: MSWQEKINAALDARRAADALRRRYPVAQGAGRWLVADDRQYLNFSSNDYLGLSHHPQIIRAWQQGAEQFGIGSGGSGHVSGYSVVHQALEEELAEWLGYSRALAFISGFAANQAVIAAMMAKEDRIAADRLSHASLLEAASLSPSQLRRFAHNDVTHLARLLASPCPGQQMVVTEGVFSMDGDSAPLAEIQQVTQQHNGWLMVDDAHGTGVIGEQGRGSCWLQKVKPELLVVTFGKGFGVSGAAVLCSSTVADYLLQFARHLIYSTSMPPAQAQALRASLAVIRSDEGDARREKLAALITRFRAGVQDLPFTLADSCSAIQPLIVGDNSRALQLAEKLRQQGCWVTAIRPPTVPAGTARLRLTLTAAHEMQDIDRLLEVLHGNG
B14: bioF L104W (protein)
chain: B13 chain with A104W
B15: bioF L104D (protein)
chain: B13 chain with A104D
B16: bioF F105W (protein)
chain: B13 chain with A104L, F105W
B17: bioF F105P (protein)
chain: B13 chain with A104L, F105P

Biological target: Escherichia coli (laboratory strain)
Test: barcode share on antibiotic plates over drug-free plates; higher = less susceptible
Conditions: antibiotic: gentamicin; 2× MIC (MIC 0.45 µg/mL)
Method: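 A pool of E. coli strains, each edited to carry one amino-acid change in an essential protein, was grown for 48 h on minimal glucose agar with or without antibiotic; strain barcodes were sequenced; mean of two replicates.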

Protein	fold change of barcode share
B1	< 0.0198
B2	< 0.0149
B3	< 0.0176
B4	0.00721 ± 0.0042
B5	< 0.00806
B6	< 0.0171
B7	< 0.0211
B8	< 0.0215
B9	45 [active]
B10	< 0.0208
B11	0.0273 ± 0.0057
B12	0.0198 ± 0.003
B13	0.00517 ± 0.0027
B14	0.00538 ± 0.0013
B15	0.0101 ± 0.0039
B16	0.00919 ± 0.002
B17	0.00917 ± 0.00026
